We go through 18 molecules from the supplement of paper PMC10369915.

Some of the results follow. Cut-off read from the data, not from the text of the source: active = 3.2 or more and inactive = the rest. Most of these values are background signal.
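Note: displayed peptides selected on beads carrying the immobilized SH2 domain, with library peptides lacking any tyrosine serving as negative controls.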

In one assay the target is SHP2 C-SH2 domain E139D. As to the kind of experiment: enrichment score (SH2-bound / input frequency) (ratio); bacterial display of known human phosphotyrosine sites (pTyr-Var adds point mutants) read by sequencing; higher = stronger binding; tyrosines were phosphorylated by kinases first. The conditions noted are these: peptide library: pTyr-Var.
Consider HKLSYYEYDFE [BTK_Y40], for which the enrichment score was inactive: 1.41.

In the case of HKLSSYEFDFE [BTK_Y40_Y39S_YF], the enrichment score is inactive: 0.732.

For the molecule HKLSFCEFDFE [BTK_Y40_Y40C_YF], the enrichment score is inactive: 0.799.

Regarding VTAALYGCLFE [BTD_Y536_R538C_YF], the enrichment score was inactive: 1.18.

Regarding GVIRHSVVCST [BTK_Y334_Y334S], the enrichment score is inactive: 0.91.

Consider KLSCSYSHLSA [C4BPA_Y470_W473L], for which the enrichment score is inactive: 0.912.

Turning to QGLRLYRTHLA [BTK_Y617_P619T], the enrichment score is inactive: 1.79.

Regarding NKYTTYLPRLP [C9orf24_Y126], the enrichment score is inactive: 0.962.

KWRGQYDVANK [BTK_Y425_I429N]: the enrichment score is inactive: 1.45.

For NKFTTYLPWLP [C9orf24_Y126_R129W_YF], the enrichment score was inactive: 1.7.

Regarding LTTEVYFPSIK [C5orf64_Y60_A57T], the enrichment score was inactive: 1.7.

On to PELINCHQHNS [BTK_Y361_Y361C], for which the enrichment score is inactive: 1.63.

Regarding CETMEYLESKQ [BTK_Y511_A508T], the enrichment score is inactive: 0.94.

Consider CEAIEYLESKQ [BTK_Y511_M509I], for which the enrichment score was inactive: 0.881.

With VTAALYGRLYE [BTD_Y536], the enrichment score is inactive: 1.4.

AGVDRYSLGTS [C5orf42_Y1451_P1446A]: the enrichment score was inactive: 0.656.

As for PELINYHQHNS [BTK_Y361], the enrichment score was inactive: 1.38.

For the molecule KWRGQYDVAIR [BTK_Y425_K430R], the enrichment score is inactive: 1.9.

A further assay deals with SHP2 C-SH2 domain wild-type. Described as above. The conditions noted are these: peptide library: pTyr-Var.
For the molecule HKLSYYEYDFE [BTK_Y40], the enrichment score was inactive: 1.42.

In the case of HKLSSYEFDFE [BTK_Y40_Y39S_YF], the enrichment score is inactive: 0.587.

As for HKLSFCEFDFE [BTK_Y40_Y40C_YF], the enrichment score was inactive: 0.968.

Consider VTAALYGCLFE [BTD_Y536_R538C_YF], for which the enrichment score is inactive: 1.43.

GVIRHSVVCST [BTK_Y334_Y334S]: the enrichment score is inactive: 0.869.

Regarding KLSCSYSHLSA [C4BPA_Y470_W473L], the enrichment score was inactive: 1.25.

With QGLRLYRTHLA [BTK_Y617_P619T], the enrichment score was inactive: 1.27.

NKYTTYLPRLP [C9orf24_Y126]: the enrichment score is inactive: 0.855.

Take KWRGQYDVANK [BTK_Y425_I429N]: the enrichment score is inactive: 1.13.

For NKFTTYLPWLP [C9orf24_Y126_R129W_YF], the enrichment score was inactive: 1.58.

For LTTEVYFPSIK [C5orf64_Y60_A57T], the enrichment score was inactive: 0.997.

As for PELINCHQHNS [BTK_Y361_Y361C], the enrichment score was inactive: 1.56.

With CETMEYLESKQ [BTK_Y511_A508T], the enrichment score was inactive: 1.05.

Consider CEAIEYLESKQ [BTK_Y511_M509I], for which the enrichment score was inactive: 1.44.

VTAALYGRLYE [BTD_Y536]: the enrichment score is inactive: 1.37.

Turning to AGVDRYSLGTS [C5orf42_Y1451_P1446A], the enrichment score is inactive: 0.506.

Consider PELINYHQHNS [BTK_Y361], for which the enrichment score is inactive: 0.95.

On to KWRGQYDVAIR [BTK_Y425_K430R], for which the enrichment score was inactive: 1.84.

The next assay addresses SHP2 N-SH2 domain L43F. Described as above. The conditions noted are these: peptide library: pTyr-Var.
Regarding HKLSYYEYDFE [BTK_Y40], the enrichment score is inactive: 2.01.

Take HKLSSYEFDFE [BTK_Y40_Y39S_YF]: the enrichment score is inactive: 0.584.

Regarding HKLSFCEFDFE [BTK_Y40_Y40C_YF], the enrichment score was inactive: 0.714.

VTAALYGCLFE [BTD_Y536_R538C_YF]: the enrichment score is inactive: 1.33.

Turning to GVIRHSVVCST [BTK_Y334_Y334S], the enrichment score is inactive: 0.793.

For KLSCSYSHLSA [C4BPA_Y470_W473L], the enrichment score was inactive: 0.96.

Regarding QGLRLYRTHLA [BTK_Y617_P619T], the enrichment score is inactive: 2.01.

Turning to NKYTTYLPRLP [C9orf24_Y126], the enrichment score was inactive: 0.922.

Turning to KWRGQYDVANK [BTK_Y425_I429N], the enrichment score is inactive: 1.15.

With NKFTTYLPWLP [C9orf24_Y126_R129W_YF], the enrichment score was inactive: 1.52.

Take LTTEVYFPSIK [C5orf64_Y60_A57T]: the enrichment score was inactive: 0.958.

Take PELINCHQHNS [BTK_Y361_Y361C]: the enrichment score was inactive: 1.43.

CETMEYLESKQ [BTK_Y511_A508T]: the enrichment score is inactive: 0.818.

With CEAIEYLESKQ [BTK_Y511_M509I], the enrichment score is inactive: 1.08.

In the case of VTAALYGRLYE [BTD_Y536], the enrichment score was inactive: 1.23.

Turning to AGVDRYSLGTS [C5orf42_Y1451_P1446A], the enrichment score is inactive: 0.583.

Regarding PELINYHQHNS [BTK_Y361], the enrichment score is inactive: 1.03.

For KWRGQYDVAIR [BTK_Y425_K430R], the enrichment score is inactive: 1.87.

Another assay deals with SHP2 N-SH2 domain T42A. The description is as above. As to conditions: peptide library: pTyr-Var.
Turning to HKLSYYEYDFE [BTK_Y40], the enrichment score was inactive: 1.73.

Consider HKLSSYEFDFE [BTK_Y40_Y39S_YF], for which the enrichment score is inactive: 0.491.

HKLSFCEFDFE [BTK_Y40_Y40C_YF]: the enrichment score is inactive: 0.729.

For VTAALYGCLFE [BTD_Y536_R538C_YF], the enrichment score is inactive: 1.02.

With GVIRHSVVCST [BTK_Y334_Y334S], the enrichment score is inactive: 0.709.

As to KLSCSYSHLSA [C4BPA_Y470_W473L], the enrichment score was inactive: 1.1.

Turning to QGLRLYRTHLA [BTK_Y617_P619T], the enrichment score was inactive: 1.49.

Take NKYTTYLPRLP [C9orf24_Y126]: the enrichment score was inactive: 0.792.

For KWRGQYDVANK [BTK_Y425_I429N], the enrichment score is inactive: 1.05.

Take NKFTTYLPWLP [C9orf24_Y126_R129W_YF]: the enrichment score was inactive: 1.51.

Turning to LTTEVYFPSIK [C5orf64_Y60_A57T], the enrichment score is inactive: 1.36.

With PELINCHQHNS [BTK_Y361_Y361C], the enrichment score is inactive: 1.16.

In the case of CETMEYLESKQ [BTK_Y511_A508T], the enrichment score was inactive: 0.845.

Turning to CEAIEYLESKQ [BTK_Y511_M509I], the enrichment score is inactive: 1.03.

VTAALYGRLYE [BTD_Y536]: the enrichment score is inactive: 1.05.

AGVDRYSLGTS [C5orf42_Y1451_P1446A]: the enrichment score was inactive: 0.516.

As to PELINYHQHNS [BTK_Y361], the enrichment score was inactive: 0.977.

For KWRGQYDVAIR [BTK_Y425_K430R], the enrichment score was inactive: 1.82.

Another assay has as its target SHP2 N-SH2 domain T52S. The assay is described as above. The conditions noted are these: peptide library: pTyr-Var.
With HKLSYYEYDFE [BTK_Y40], the enrichment score is inactive: 1.93.

Regarding HKLSSYEFDFE [BTK_Y40_Y39S_YF], the enrichment score was inactive: 0.642.

As to HKLSFCEFDFE [BTK_Y40_Y40C_YF], the enrichment score is inactive: 0.802.

Regarding VTAALYGCLFE [BTD_Y536_R538C_YF], the enrichment score was inactive: 1.08.

With GVIRHSVVCST [BTK_Y334_Y334S], the enrichment score was inactive: 0.748.

For KLSCSYSHLSA [C4BPA_Y470_W473L], the enrichment score is inactive: 0.88.

With QGLRLYRTHLA [BTK_Y617_P619T], the enrichment score is inactive: 2.17.

As for NKYTTYLPRLP [C9orf24_Y126], the enrichment score is inactive: 0.76.

Regarding KWRGQYDVANK [BTK_Y425_I429N], the enrichment score is inactive: 1.27.

For the molecule NKFTTYLPWLP [C9orf24_Y126_R129W_YF], the enrichment score was inactive: 1.74.

Regarding LTTEVYFPSIK [C5orf64_Y60_A57T], the enrichment score was inactive: 1.12.

With PELINCHQHNS [BTK_Y361_Y361C], the enrichment score was inactive: 1.52.

Regarding CETMEYLESKQ [BTK_Y511_A508T], the enrichment score is inactive: 0.606.

For the molecule CEAIEYLESKQ [BTK_Y511_M509I], the enrichment score is inactive: 0.918.

VTAALYGRLYE [BTD_Y536]: the enrichment score is inactive: 1.38.

Take AGVDRYSLGTS [C5orf42_Y1451_P1446A]: the enrichment score is inactive: 0.556.

For the molecule PELINYHQHNS [BTK_Y361], the enrichment score is inactive: 1.43.

With KWRGQYDVAIR [BTK_Y425_K430R], the enrichment score was inactive: 2.05.

The target of a further assay is SHP2 N-SH2 domain wild-type. Described as above. The conditions noted are these: peptide library: pTyr-Var.
As to HKLSYYEYDFE [BTK_Y40], the enrichment score is inactive: 1.78.

With HKLSSYEFDFE [BTK_Y40_Y39S_YF], the enrichment score was inactive: 0.599.

For the molecule HKLSFCEFDFE [BTK_Y40_Y40C_YF], the enrichment score is inactive: 0.741.

As for VTAALYGCLFE [BTD_Y536_R538C_YF], the enrichment score is inactive: 1.55.

Take GVIRHSVVCST [BTK_Y334_Y334S]: the enrichment score was inactive: 0.844.

In the case of KLSCSYSHLSA [C4BPA_Y470_W473L], the enrichment score is inactive: 1.58.

For the molecule QGLRLYRTHLA [BTK_Y617_P619T], the enrichment score was inactive: 1.67.

Consider NKYTTYLPRLP [C9orf24_Y126], for which the enrichment score is inactive: 0.963.

As to KWRGQYDVANK [BTK_Y425_I429N], the enrichment score is inactive: 1.17.

Take NKFTTYLPWLP [C9orf24_Y126_R129W_YF]: the enrichment score was inactive: 1.74.

Regarding LTTEVYFPSIK [C5orf64_Y60_A57T], the enrichment score was inactive: 1.1.

For the molecule PELINCHQHNS [BTK_Y361_Y361C], the enrichment score is inactive: 1.38.

As for CETMEYLESKQ [BTK_Y511_A508T], the enrichment score was inactive: 1.1.

For the molecule CEAIEYLESKQ [BTK_Y511_M509I], the enrichment score is inactive: 1.57.

Take VTAALYGRLYE [BTD_Y536]: the enrichment score is inactive: 1.38.

Turning to AGVDRYSLGTS [C5orf42_Y1451_P1446A], the enrichment score was inactive: 0.736.

Take PELINYHQHNS [BTK_Y361]: the enrichment score was inactive: 1.36.

Regarding KWRGQYDVAIR [BTK_Y425_K430R], the enrichment score is inactive: 1.95.
